± gives the standard deviation of the averaged measurements. Whole data set: some 4,000 sequences, median “arbitrary fluorescence units” near 830, cut for the highest 2% near 6,500. Most of the strongest results are missing from this list.
These sequences were tested against RUNX1 (UniProt Q01196) (assay: RUNX1 binding intensity (PBM fluorescence), RUNX1 alone (arbitrary fluorescence units); higher = stronger binding). Conditions: RUNX1 concentration 2 nM; ETS1 concentration 0 nM.
Description: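 gcPBM on 36-bp genomic-derived probes (partner site mutated) containing one RUNX1 site and no ETS1 site. Recombinant human RUNX1 (2 nM) was incubated alone or with ETS1 (25 nM) and detected by anti-RUNX1 antibody fluorescence. Values are medians over 4 replicate spots (not normalised). The probes sit in constant array flanks that are not printed.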
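Note: Full-length recombinant human RUNX1 bound to double-stranded DNA microarray spots, detected with an Alexa488-labelled secondary antibody after the anti-RUNX1 primary, read as scanned spot fluorescence.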

Sequence of UniProt Q01196 (Q01196 whole entry): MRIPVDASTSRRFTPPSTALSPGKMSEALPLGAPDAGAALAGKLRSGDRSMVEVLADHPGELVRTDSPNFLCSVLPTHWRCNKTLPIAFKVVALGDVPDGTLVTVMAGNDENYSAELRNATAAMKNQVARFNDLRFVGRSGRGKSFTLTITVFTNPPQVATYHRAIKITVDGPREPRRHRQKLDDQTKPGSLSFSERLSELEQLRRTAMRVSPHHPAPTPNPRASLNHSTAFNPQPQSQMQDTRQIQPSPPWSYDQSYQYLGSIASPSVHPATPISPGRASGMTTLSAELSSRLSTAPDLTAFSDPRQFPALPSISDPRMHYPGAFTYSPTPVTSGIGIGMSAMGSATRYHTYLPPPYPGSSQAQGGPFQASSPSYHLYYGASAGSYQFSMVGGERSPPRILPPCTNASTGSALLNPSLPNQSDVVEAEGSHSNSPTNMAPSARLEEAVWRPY

Sequence	RUNX1 binding intensity
CCGCGCACCCGGCACTACCTCCCGACCCGCATCCCC	1440
GCGGAGCACCTCCCACAGAGGGAACGAATTGCCAGC	720
AAAGCCATCCCGCAATTGTCAATGGCAGGGAGCCAC	850
GACATGTGGCTATTTTGGGCAATTGCCTGAGGAGGC	720
TCGTGTTCTCCTCCGTTCTGTGGTAGCTTTTTGGTA	1110
CACCTGAAAAGGCAAGCGCGGCCGCGCGGTTGGCGC	731
CCTAAGTGACAGCATGGTCTGGCGACCACATTGCCC	794
GAAGGCAGTGGAGACAGTAAGGGGAAACCACAAACC	1060
CGTCCCTAAACCACAGCTACAGCATGTAGGCACAAG	2270
GGTTGCTCGGAGCCGGGACTGCCGCAGGGGGTGCCA	778
TCGGGTGCGCGGTTCGGGGGCGGCTCGGACACCCCA	701
GCTGCCTTGTGGGCACGGTAGTTCAGCCGGGTCTGG	663
CCGCTGACAGCCGCTTGGCCTGCGGCTTCTTTCTGT	1010
ATGAGCTATTGCCTGCCTTGTGGTCAGAGCCAGACT	1040
GCGGGGCGTGACCACGCACTTCCAGTTTTCTCGAAA	869
GAGAAACCACGCAAACCAAGCCAGTTCCCCCAAGTC	941
CAAGAGAAAGGAGGTGGAAGCTCTTGTGGTCTGGAA	704
GTAGTAAGTTGTGGTTAAAAGAGAGGACGTTCAGAG	7590
AAGCAGTCAGCATGGCCGAGCGGTCTAAGGCGCTGC	672
CAAAGCTACCACAAAGCTACCAGAGAACGAAAGAGA	887
CCCTACTGCGTGCGGTGGCAGCTTTCTTACGGCAGT	925
TTTTTCTTGTGGCTTCTTCAGCCACATGCTGACCAA	1200
ATTAAAGACCTCCGTGCAAGACCACAGCTGCCTGAC	841
GGGGCCCCGGGTGCACTGAGCGGCTGCGGCGCGGCT	666
CACTCCCCGCCTCCGGTCTGCGGCGCGCTCGGGGCC	819

Sequence	RUNX1 binding intensity
TATAATTTGCGGCTGGGTGTTTACTGTTTTTTTGCA	953
AGGTGGAACTACTGTGTCAGGAGTCGTGGTTTTCAA	885
GGTACACCCCGCCCGCAGGTACCCGTACGGCGCAAG	807
CGGCGCCTGCGGCCCACCCCTCCCTTTCAGGTCCCC	989
GCTCTCGCGGGAGATGTCCCTGCGGTGCAGCTGCCG	767
ACAGCAAATGACATCAGAATCTCCAAACCACAACCA	1480
CAGCAGTGGGTTTGCAGGAGCAGGCTCCATCTGCAG	752
CCGCGGTGGTGCCCTTGCCCCTGATGAGGACACTGA	831
GTGGGTAGGGAGCAAGCTGTGAAACCACCTCCCCTC	790
CTGGTCACTGCGGTGAGGAGGCTTTTCATGGGGTAA	1160
TGTTAAAATGTGGGCAGCAAGAAAGGGAATAGTGTT	843
ACCTGATGCCGGGGCACCGCCAGATGTGGCCACGAG	872
AGCTCATTCTGAGGCTGCCCACACGGCTGTGGGTCC	857
CAGGGGCTACCCGCGCAGGACGCTGTTTCGTGCCCC	735
AGTCGCGGTTCCCACTCCACAACAGACTCGGAGGCT	984
CTTCCTATGAAAACCACTTTCCTTCTTACCAAAACC	1990
CTTCGAATTACCGCGAGAGAGTGCCGCGTAGGGGTC	814
GCATCCCGCGCGCCGCAGACCCACTTTCGGAGACCT	1010
GTAGCAACCGCAGGCTCACACACCGAAAGTGCTCGC	2730
CTGGCCTGCGGCCGCCACCACCTCCTCCTCCCCATG	1150
CTCTGGCGCGGGGCCGCAGCCTTTCAGCCACCAGGC	787
GAGCCTGTTGCTTCAGGTTCAGAGCCCACATGCTGG	759
GGCCAACCAAAAACCACTGGCAGGAGGTGGGGCAAC	852
CTCTTACGGCCGCGAGGAGCGCGACTGCGGCCCCTG	833
CTCCGCGGTCCCCTGCAGGCACCGAGGGCTGAACCA	800

Sequence	RUNX1 binding intensity
AAAGTCAAAACCACAGGAACAGAAAACTGTTCACTG	1730
TAGGTCTGTGGGTGACGTCTGTTTACTGTGATTGAA	842
GGGCGGGTAGGCGGTTTGTATCCAGGCTGTGAGGTG	828
AGCTCCCAGACCACAGAGGTTTTGCTGCATGGAGGA	1250
CTCCACCTGATGCAGCAATGAAGGCCGCAGGAATGG	757
AGACGGGACCTGAAGCCGGGCCGCAGGCGGCCGGGC	688
TGGAGGAGACCACACCTTCAAGCAACAACCTCTCCT	834
GGGAAGGACTGCGGCACAAGGGACTTTCGGCTCTTG	705
GGTTCCAGTGTCCCGTTTTGTTGATGTGGTAAATTT	1090
GACTTCAGTGGTTAACTCTGGAGAGCAGGCAATGGG	894
GTTGGCTGATTCCCGGTGCTGTGGGGGTTAAGTCTC	787
CTTTAAGGAGGCGCAAAAGTTAACCGCGATGGGCAG	918
TTCGGCCGCCGCCACCACACACATCCAGGTCCCCGC	1010
TTCTATGCTGCCTTGCATGTCTTTAACCACACTGAG	1170
GGGGCAGCTTACGGCAGGAGAGCCCGCATTCACGGC	1230
TTTCCAGAGGCTGTAGCTTCTGCGGGAGAGCTTCAA	666
GCCGGACCCTGCGGCCCCGGGACTGGACACCAGGCG	707
TTGCCGTAACCACTTTATCCACCTCCTTTTTCACGA	2720
AGCGCTCCCTTGCCGAGAGGCTGGAGCTGCGGCACC	685
CTAACCCACACCAGCGCGTTGCCTCGGCAACATCGC	807
TTCAGGTGACTCCCGGCCGGACCGCTGAGGACGCGG	654 ± 37
ACACCCCAGCAAGTGGCAGAGACCACAACAAGTCAG	798
GAAAGAGGTTTGAGGTTAGTGCTTCATGTCTCCACA	802
CGGCTGGCAGGCAGTGGCCACTTGAACCGCAGATGC	926
GCTGCGGCCAAGTGCAGGAACCTGACGAAGGAACTG	822

Sequence	RUNX1 binding intensity
CCTGGGTGTTTGAGGTTCGTTCATTCTGAGGCATAA	876
GTATGGGAGGTGATCTGGCTGCAAACCGCAAGAGAG	8250
TCTTGTTTCTTCAGTTACCGGAGCGCGGTCACGTGA	875
TGCTTCCCTTCAGTGCCGACAGCGAAAACCGCTGCC	795
AAGTGGAGAGCGGCAGTGAGCTGTGGGTGACTGCAG	649
ACAATGAGTGGTTTTCTGAAGTGTCGGACCATCTGT	845
GCAGGCGAAGGCCGAACTGGCGTGGTCAAACCAACC	780
GCTGCGGCCCCCTCCCAAAACCCGGGGAGGTGGATT	779
CAGGCCGCAGGGGAGAGGCACGTCCATGAAGATCTA	735
GGCTCTGCCGACCGCTGACAGGACGACGCTGACGAC	772
CAGCTGACATGAAGGAGAGAACCACAGACAGTGCGA	803
CCCATCCATACGCCTCCAAAGTAACCTCAAGAATTT	1600
CTACCTCCTGTGGTGACTCCACCCCTTCATGCGTCC	1200
CCCCTCGCCCCTCCGCATTGCGGGTTACTTCGGTTG	1650
CGAGCCGCCTTGCTCCCCGGCCCACAGCCCAGCACT	889
TTCAGCAAATGCAAACGGCTGCAGAGACCGCAGAGG	862
CCTGCTTGCATGTGGTTCAGACATGCTGAGGTGGTA	764
AATCCACCTCCCCGGGTTTTGGGAGGGGGCCGCAGC	839
CTGCTTGTGGGTGGAGGGGAGCCTCCGAAGGAGGCC	897
GGGCGCGGTTGCCGGGGAACGCGATTCCCGCCGCAC	747
CCGAGGATTGTGGGAGATGTAGTTTTTCAGGCGCCT	826
TTTTCTCTAAACCACATCAAAACCAGGCAACCAGTC	1760
GATGGTGGTTTTGGCAGAGGCCACACCCTGTCTGTT	1000
GTGGGACCTGATTCCTTAGCCCACAAGATGCAGAGC	845
TGGTCCTTTGTGGGCGTGCTGTCAGAAAGATGACAG	737

Sequence	RUNX1 binding intensity
CTTGGCGGCAGTGGTGTGGGGGAGGTAGCCCGCAGT	752
GCTCATTTGCTGGCCGCTCCTGGGCTTCGCGGTGAG	773
GTGCGAGGGCGGTAAGTGGAAGGCAGCAGCGCATGG	730
AGCCACACCCTGGACAAAAGCTGTGGTCTAGTAACC	955
CTTCTGGCCGAAGCGGCACAAGCCGCAGTACAGCGC	705
TGACTCCCGGTCCGTAGTGGGGCCTGCGGTGGGAGT	753
ACAGCAAATGTTAGAGGTTGAGTTAGCGGTTATGAG	848
CCCACCGCGCCCAGCCCTGCCACTCTCGGGAATGGG	941
CGCCCACCACCTCCTGCTGGCGGTCGGCAAGCGTTG	897
CAGGCCTGTGGTTTCTGTAACAGCAAGTGATTTAGA	3550
CAAGCTCTGCGGCCTTCGTTCCTCTCTTCAGTTTGC	1110
GTTTGGAGCAAGGACCCAGGGGCCCTTGTGGCTCAC	685 ± 32
AGGTCTTGTGGCTCATTTTGTACCCACTTGCTGGGC	729
GACCAGGCAACGGGGCGTGGCGGCCGCCGTGGTTAC	865
GGAGGCGAAAGTGGAGGTTGTTGTGGCTCCGAGGGC	714
TCCGCCCGCGGCTGCTGAGAACCGCAGCTGCACAAG	892
CCTTACTTTCGGGGTCGGCCCCGCCCGCAAGCGCCG	909
CTCGGCCACCGCGTGCTCCACTCGGCAGTGGTGCCG	756
TCCGTGCGGTGCAGCAGGTCGGTAGGCGGGAACTGG	694
TTTGTGGTCTCATGGAAAGAGCACACGATGCAGAAT	826
GACCTGCCTTCAGGCCTCCGTCACATGACCGCACAG	973
CCTCACTAACATGCTGTTGAGGTGTCCCACAAACCA	850
GCTCTGGCCGAAGATGTCCCTGCGGTGCAGCTGCCG	796
CCCAAGCTACTGAAGTTAAACCTCAAACATGAAATC	910
TTAGGACCCAGCGGTGGGCTCTCCGACAGGGGAAGG	661
